This is one part of the list. Repeats are few or missing, and single values can be far off.

Test systems include MZ2-MEL; MeWo; RPMI7951; RVH-421; SkMel28; SkMel2; SkMel30; SkMel5; UACC257; UACC62.
What all share (experiment): cell count relative to DMSO control; melanoma cells; higher = more viable cells
What all share (settings): library dose: low library concentration; 72 h
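Further: cell number obtained by counting DAPI-stained nuclei in high-throughput microscope images with image analysis software, screen run in 1,536-well plates.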

As to `Cc1cc(Nc2cc(N3CCN(C)CC3)nc(/C=C/c3ccccc3)n2)n[nH]1` + c1cc(-c2cnn3cc(-c4ccc(OCCN5CCCCC5)cc4)cnc23)ccn1 [Dorsomorphin] (first compound 0.04 µM, partner dose 0.4 µM), the cell count in the test with MZ2-MEL was 98.1%; in the test on MeWo, 93.6%; in the test on RPMI7951, 102%; in the test on RVH-421, 104%; in the test on SkMel28, 103%; in the test on SkMel2, 99.9%. The cell count in the test on SkMel30 came to 95.5%; in the test on SkMel5 it was 73.6%; in the test with UACC257, 92.7%; in the test on UACC62, 102%.

Consider `Cc1cc(Nc2cc(N3CCN(C)CC3)nc(/C=C/c3ccccc3)n2)n[nH]1` + O=C(Nc1cccc(Cl)c1)Nc1ncc(CCNc2ncnc3ccsc23)s1 [SNS314] (first compound 0.04 µM, partner dose 0.0008 µM), for which the cell count in the test on MZ2-MEL was determined as 110%; in the test on MeWo, 108%; with RPMI7951, 91.8%; in the test with RVH-421 it was 106%; with SkMel28 it was 99.7%; in the test on SkMel2 it was 100%. The cell count in the test with SkMel30 turned out to be 91.3%; in the test on SkMel5, 92.7%; in the test on UACC257, 107%; in the test on UACC62, 95.9%.

`Cn1c(=O)n(-c2ccc(C(C)(C)C#N)cc2)c2c3cc(-c4cnc5ccccc5c4)ccc3ncc21` + Oc1nc(-c2ccc(C(F)(F)F)cc2)nc2c1CSCC2 [XAV939] (first compound 0.004 µM, partner dose 2 µM): the cell count worked out at 93.8% in the test on MZ2-MEL; 88.3% in the test on MeWo; 92.1% in the test on RPMI7951; 17.7% with RVH-421; 71.8% with SkMel28; 87.2% in the test on SkMel2. Besides, the cell count in the test on SkMel30 was determined as 95%; in the test on SkMel5, 85.9%; in the test with UACC257, 90.4%; with UACC62, 76.1%.

Take `CC(C)C[C@H](NC(=O)[C@H](Cc1ccccc1)NC(=O)c1cnccn1)B(O)O` [Bortezomib] + O=C(Nc1ccccc1)c1cc([N+](=O)[O-])ccc1Cl [GW9662] (first compound 0.001 µM, partner dose 2 µM): the cell count in the test on MZ2-MEL is 79.8%; with MeWo, 79.4%; in the test on RPMI7951 it was 87.1%; in the test with RVH-421, 170%; in the test on SkMel28 it was 96.4%; with SkMel2, 100%. The cell count was 79.7% in the test with SkMel30, 92.1% in the test with SkMel5, 84.6% in the test with UACC257 and 65.9% with UACC62.

Take `Cn1c(=O)n(-c2ccc(C(C)(C)C#N)cc2)c2c3cc(-c4cnc5ccccc5c4)ccc3ncc21` + O=C(O)C(=O)Nc1sc2c(c1C(=O)O)CCNC2 [TCS401] (first compound 0.004 µM, partner dose 1.66667 µM): the cell count amounted to 109% in the test with MZ2-MEL; 89.2% with MeWo; 105% in the test with RPMI7951; 85.1% in the test on RVH-421; 84.6% with SkMel28; 90.1% in the test with SkMel2. Moreover, the cell count came out at 94.6% with SkMel30, 107% in the test on SkMel5, 95.2% in the test with UACC257 and 80.6% with UACC62.

Consider `Cc1cc(Nc2cc(N3CCN(C)CC3)nc(/C=C/c3ccccc3)n2)n[nH]1` + Cc1ccc(NC(=O)c2cccc(N(C)C)c2)cc1NC(=O)c1ccc(O)cc1 [ZM336372] (first compound 0.04 µM, partner dose 2 µM), for which the cell count came to 91.1% in the test on MZ2-MEL; 97.9% with MeWo; 82.7% in the test with RPMI7951; 115% with RVH-421; 80.9% in the test on SkMel28; 105% in the test on SkMel2. Also, the cell count with SkMel30 was determined as 76.6%; in the test with SkMel5 it was 76.3%; in the test with UACC257, 59.8%; in the test on UACC62 it was 89.4%.

With `Cc1cn(-c2cc(NC(=O)c3ccc(C)c(Nc4nccc(-c5cccnc5)n4)c3)cc(C(F)(F)F)c2)cn1` [nilotinib] + COc1cc(Nc2ncc(F)c(Nc3ccc4c(n3)NC(=O)C(C)(C)O4)n2)cc(OC)c1OC [Tamatinib] (first compound 0.2 µM, partner dose 0.4 µM), the cell count in the test on MZ2-MEL worked out at 88.5%; with MeWo it was 82.4%; in the test with RPMI7951, 87.7%; in the test on RVH-421 it was 117%; in the test on SkMel28, 80.7%; in the test on SkMel2, 91.3%. The cell count with SkMel30 amounted to 84.8%; in the test on SkMel5 it was 86.9%; in the test with UACC257 it was 73.7%; in the test on UACC62, 86.2%.

`Cn1c(=O)n(-c2ccc(C(C)(C)C#N)cc2)c2c3cc(-c4cnc5ccccc5c4)ccc3ncc21` + Cn1cncc1[C@@](N)(c1ccc(Cl)cc1)c1ccc2c(c1)c(-c1cccc(Cl)c1)cc(=O)n2C [tipifarnib] (first compound 0.004 µM, partner dose 0.01 µM): the cell count with MZ2-MEL turned out to be 94%; in the test with MeWo, 80.8%; with RPMI7951, 97.7%; in the test on RVH-421 it was 75.1%; in the test with SkMel28, 53.5%; in the test on SkMel2, 74.8%. Further, the cell count in the test on SkMel30 was 71%; with SkMel5, 109%; in the test on UACC257 it was 55.9%; with UACC62, 62%.

`CC(C)C[C@H](NC(=O)[C@H](Cc1ccccc1)NC(=O)c1cnccn1)B(O)O` [Bortezomib] + Cc1cc([N+](=O)[O-])ccc1NS(=O)(=O)c1cc(Cl)ccc1Cl [FH535] (first compound 0.001 µM, partner dose 1 µM): the cell count in the test on MZ2-MEL turned out to be 70.7%; in the test with MeWo it was 86.7%; in the test with RPMI7951, 75.3%; in the test on RVH-421, 9.13%; in the test on SkMel28, 68.8%; in the test on SkMel2, 85.6%. Also, the cell count in the test on SkMel30 is 76.1%; with SkMel5 it was 67.8%; in the test with UACC257, 89.3%; in the test with UACC62, 67.9%.

`COc1ccc(C2=N[C@@H](c3ccc(Cl)cc3)[C@@H](c3ccc(Cl)cc3)N2C(=O)N2CCNC(=O)C2)c(OC(C)C)c1` [Nutlin-3] + COc1ccc(COc2ccc(Cc3cnc(N)nc3N)cc2OC)cc1 [GW2580] (first compound 0.1 µM, partner dose 1 µM): the cell count was determined as 96.4% in the test on MZ2-MEL; 98.3% in the test on MeWo; 109% with RPMI7951; 71.3% in the test on RVH-421; 92.5% in the test on SkMel28; 97.4% with SkMel2. Further, the cell count with SkMel30 was determined as 76.3%; in the test on SkMel5, 89.6%; with UACC257 it was 105%; with UACC62, 91.4%.

As for `Cc1cc(Nc2cc(N3CCN(C)CC3)nc(/C=C/c3ccccc3)n2)n[nH]1` + Cn1cc(/C=C2\C(=O)Nc3cccnc32)c2ccccc21 [GW441756] (first compound 0.04 µM, partner dose 0.4 µM), the cell count in the test on MZ2-MEL is 97.2%; with MeWo, 96.6%; in the test on RPMI7951, 93.7%; in the test with RVH-421, 84.3%; in the test with SkMel28, 91.7%; in the test on SkMel2, 103%. The cell count with SkMel30 came to 85.2%; with SkMel5 it was 81.1%; with UACC257, 86.8%; with UACC62, 107%.

The record behind these values is the supplement of paper PMC4604168 (melanoma cell lines).
